Reference: the supplement of paper PMC11417369
The list shows a part of the results.

test system: PfHDP1 homeodomain (GST-tagged); experiment: gcPBM binding intensity (ln(normalized median fluorescence intensity)); higher = stronger DNA binding
In short: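 Binding intensity is defined as the maximum Masliner-normalised natural-log median intensity across replicate spots for either probe orientation. It was measured on an Agilent 4 × 180k array of primer-extended double-stranded 36-bp intergenic genomic probes and negative controls, to which GST-tagged P. falciparum DNA-binding domains made in E. coli were applied for 1 h in 1× PBS with 1% milk, 0.2 mg/ml BSA, 0.5% salmon testes DNA and 0.03% Triton X-100. Detection was by Alexa488 anti-GST antibody and scanning at 488 nm.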

First: AAAAAAAAAAATACTAGTACGTAAAATTATATAAAT [XGTACX_site3019]
Second: ATATCATTATATAGTTGTACATATTTATTTATTTAT [XGTACX_site8995]
The “gcPBM binding intensity (ln)” value of the first is lower: 6.7 for the first, 6.77 for the second.

First: TATATATATATATGTACACACACACCGATAAATAAA [CACACA_site8041]
Second: AAAGAAAGAAAACACACACACATATATATATATCAA [CACACA_site3743]
The “gcPBM binding intensity (ln)” value of the first is higher: 9.34 for the first, 6.82 for the second.

Compared with “TTTTTGTCTGCATACGCACACACGTGGACCATCTTA [CACACA_site8303]”, “AACAAAATAAAAAGTAATCTTATTTATTAAAATTTT [CACACA_negctrl_site419]” is lower in “gcPBM binding intensity (ln)” value: 7.5 for the first, 5.81 for the second.

Going from “CTTTATTATAAGATTACACACATGTGTTCTAATTTA [CACACA_site7479]” to “TATAAACAAAACAAAACATGCATAATACTATAAATT [TGCATGCA_site333]”, the “gcPBM binding intensity (ln)” value rises from 6.49 to 6.73.

First: TAATTAACTTTATATGCATGTTAAAAATGTTATAAG [TGCATGCA_site761]
Second: TTTATTAAGAAACACACACACACACCCAAAATAAAA [CACACA_site242]
The “gcPBM binding intensity (ln)” value of the first is lower: 6.31 for the first, 7.07 for the second.

Going from “GTAAATATTCATATATGTACTTATGATATTTGCTAA [XGTACX_site6828]” to “TAATACTTATATAAAGGTACACAATTTAACCGAATG [XGTACX_site7173]”, the “gcPBM binding intensity (ln)” value rises from 6.02 to 6.61.

First: ACATATATATATATATATTGATTTATTTATTTCCCT [CACACA_negctrl_site659]
Second: ATATATATATATAAATGTACAAAAATATATATGTAA [XGTACX_site4531]
The “gcPBM binding intensity (ln)” value of the first is lower: 6.62 for the first, 8.94 for the second.

Compared with “AAGAAAGAGTTCTGTTGTACAAAATATTAATATGTA [XGTACX_site7213]”, “CTTCCTTAGGAATGTACACACATATAAAATATGTTG [CACACA_site6355]” is lower in “gcPBM binding intensity (ln)” value: 6.66 for the first, 6.38 for the second.

Going from “TTTCATTTTTTTACATGTACGCAAAAGTGTGTAGTT [XGTACX_site6582]” to “TTTTGGTTAATTCCCCCCATTACATTATGTCATGTC [CACACA_negctrl_site229]”, the “gcPBM binding intensity (ln)” value rises from 6.55 to 7.99.

Compared with “TCTTCAAAGACACAATCACACACATACATAAATATA [CACACA_site8128]”, “ATCAAAAATGTTATATATATATATATATATATATAT [TGCATGCA_negctrl_site71]” is higher in “gcPBM binding intensity (ln)” value: 6.89 for the first, 9.42 for the second.

Compared with “AATACGTTTCAAAAATGTACACATATATCATAAATA [XGTACX_site8962]”, “GCCATTAATTTATACACACACATTATAACTTTTTAT [CACACA_site6492]” is higher in “gcPBM binding intensity (ln)” value: 6.2 for the first, 7.49 for the second.

Compared with “TTAAATAAAAAAATAACACACATATAAATCTATATG [CACACA_site7482]”, “TATCAGCAATGGAAAACATGCAAAAAATTAATATAT [TGCATGCA_site623]” is higher in “gcPBM binding intensity (ln)” value: 6.31 for the first, 6.97 for the second.

First: ATATCAAGCTATGAGAAAAAAAAAAAGAAAAAAAAA [CACACA_negctrl_site1370]
Second: AAATATATTGCATATATACACACGTATATATATTAA [CACACA_site2759]
The “gcPBM binding intensity (ln)” value of the first is lower: 5.68 for the first, 6.83 for the second.

First: AAGTTTTCTTAAAGATGTACTTTTTAAAAATAAAAT [XGTACX_site3063]
Second: ATATTATAAATTATAGGTACACACAAAAAAAAAAAG [XGTACX_site2637]
The “gcPBM binding intensity (ln)” value of the first is lower: 6.15 for the first, 6.89 for the second.

Compared with “TGATTCTTTTCAAAGTGTACAGTAATTTTTATGTAA [XGTACX_site8452]”, “TATATAATTCAAAAATGTACATGAAATATAAATATT [XGTACX_site7984]” is higher in “gcPBM binding intensity (ln)” value: 6.08 for the first, 6.45 for the second.

First: TATATTTATTTTTAATGTACATATTTAAGAAAACTA [XGTACX_site4920]
Second: GACTCATTAAGGATTATTCCTAATGATCAAAAGAAC [CACACA_negctrl_site515]
The “gcPBM binding intensity (ln)” value of the first is lower: 6.31 for the first, 6.54 for the second.

First: TATAGCTTTCATTATACACACATCAAAAATTTAAAT [CACACA_site227]
Second: AGTAATAAATTTTATACATGCATAAAAAAAAAAAAA [TGCATGCA_site661]
The “gcPBM binding intensity (ln)” value of the first is higher: 6.81 for the first, 6.79 for the second.

Going from “TTAAAAATCATTTAAGAACACACAAATATTTCCATT [CACACA_site8418]” to “AACTTGTATTTATACACACACACACTAGCTTTTTTT [CACACA_site5132]”, the “gcPBM binding intensity (ln)” value rises from 6.69 to 6.99.

First: AGAATTAAAAACAGTTGTACAAAAAGTTGTATAAAT [XGTACX_site411]
Second: ATCATTTCTATATAAGCACACACGTGGAATTTTTTT [CACACA_site2786]
The “gcPBM binding intensity (ln)” value of the first is higher: 7.41 for the first, 6.81 for the second.

Compared with “TTTCTTTAACAAGTTAAACACACATACATATATACA [CACACA_site8810]”, “AAAATAAATATATTATCCACGTTGTATATATATATA [XGTACX_negctrl_site136]” is higher in “gcPBM binding intensity (ln)” value: 6.7 for the first, 9.05 for the second.

Compared with “AATAAATATAAAAATGCACACACACTAATAAAAAAA [CACACA_site8201]”, “CACATACAGATATATACACACAAATATAAATACACA [CACACA_site6512]” is lower in “gcPBM binding intensity (ln)” value: 9.26 for the first, 6.81 for the second.

Going from TTACTTATATGCATAGTGCAAATTTGGTAAATATCT to “AATAAACAAATAAATAAACACACAATATATGTATAT [CACACA_site9268]”, the “gcPBM binding intensity (ln)” value falls from 9.42 to 6.39.

Compared with “CATAAAAATTGAAGCACACACACAAAAGAAATACAA [CACACA_site1112]”, “AAAAAGAAATACAAATAATATATATATATATATATT [TGCATGCA_negctrl_site458]” is lower in “gcPBM binding intensity (ln)” value: 7.12 for the first, 6.83 for the second.

Going from “TACATTTTAATATAAGCATGCCTTTAGTTTTTTTCT [TGCATGCA_site829]” to “AATACAAATATATATGCACACACATATACATACATA [CACACA_site8677]”, the “gcPBM binding intensity (ln)” value rises from 6.6 to 9.99.

Compared with CAATTTATTATATATGTGCACATATAATTTTACAAA, “TAATTATTTTTATTGTTGCACTAGTAAAATTTTAAG [GTGCAC_site9946]” is lower in “gcPBM binding intensity (ln)” value: 10.4 for the first, 8.49 for the second.

Going from GAAAATATATTTAAGATGCACTTTAAAAATGTACTT to “AAGTAATCATCATAAAGTACTAAATTATATTGTCAA [XGTACX_site5841]”, the “gcPBM binding intensity (ln)” value falls from 7.26 to 6.31.

First: AAATTATATATAAAATGTACATATGTAGGTAATTTT [XGTACX_site5047]
Second: ACATTCTGATGGTGATTATTAATTATTACAAAAATT [CACACA_negctrl_site283]
The “gcPBM binding intensity (ln)” value of the first is higher: 7.18 for the first, 6.01 for the second.

Going from “ACTTTATTATATATTTGTACATATATTTTTAATTTC [XGTACX_site4144]” to “TATTTATTGTGATACTTATATTATTTCATGATTAAT [CACACA_negctrl_site738]”, the “gcPBM binding intensity (ln)” value falls from 6.86 to 6.35.

“GTATATATGTATGTATGTACTTATAAAGTTGCATAT [XGTACX_site5616]” was tested, and the “gcPBM binding intensity (ln)” value was 8.58.
